50 sequences from the supplement of paper PMC12645437, “Orthogonal IMiD-Degron Pairs Induce Selective Protein Degradation in Cells” (ACS Chemical Biology, 2025) can be followed below.

The other results are listed elsewhere or left out.
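Note: jurkat cells carrying a lentiviral library of mutant zinc finger degrons fused to EGFP plus mCherry, mCherry+ cells FACS sorted, degron abundance counted by next-generation sequencing.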

This test addresses no compound (DMSO). In words: log2 fold change of degron read counts, EGFP-low vs EGFP+ sorted cells; higher = lower degron-EGFP level without compound (poor expression or instability). The following applies: compound: DMSO control; 18 h.
For the sequence FQCEQCGAIFTQKGNLLRHIKL, the “log2 fold change of degron read counts” value was -1.88.

For the sequence FKCDQCGAYFTQKGNLLRHIKL, the “log2 fold change of degron read counts” value is -0.874.

As for FLCEQCGAVFTQKGNLLRHIKL, the “log2 fold change of degron read counts” value is -2.38.

For FQCEICGHYFTQKGNLLRHIKL, the “log2 fold change of degron read counts” value is -1.42.

On to FRCPICGRVFTQKGNLLRHIKL, for which the “log2 fold change of degron read counts” value was found to be 1.3.

On to FWCNQCGALFTQKGNLLRHIKL, for which the “log2 fold change of degron read counts” value came out at 1.24.

As for FTCEQCGACFTQKGNLLRHIKL, the “log2 fold change of degron read counts” value is -0.853.

Take LLCNQCGFMCTQKGNLLRHIKL: the “log2 fold change of degron read counts” value is 0.746.

Consider FGCNQCGRWFTQKGNLLRHIKL, for which the “log2 fold change of degron read counts” value was 1.32.

As to FQCNQCGRAFTQKGNLLRHIKL, the “log2 fold change of degron read counts” value is -0.192.

LDCPICGFKCTQKGNLLRHIKL: the “log2 fold change of degron read counts” value was 0.315.

As for LTCNQCGFLCTQKGNLLRHIKL, the “log2 fold change of degron read counts” value turned out to be 0.551.

For the sequence FYCEICGRRFTQKGNLLRHIKL, the “log2 fold change of degron read counts” value was -2.91.

On to FRCSVCGHRFTQKGNLLRHIKL, for which the “log2 fold change of degron read counts” value is -0.0503.

For the sequence FNCDICGAEFTQKGNLLRHIKL, the “log2 fold change of degron read counts” value is -3.31.

Consider LECNQCGFWCTQKGNLLRHIKL, for which the “log2 fold change of degron read counts” value came out at 0.97.

In the case of FFCDQCGAMFTQKGNLLRHIKL, the “log2 fold change of degron read counts” value is -1.12.

With FHCNQCGHDFTQKGNLLRHIKL, the “log2 fold change of degron read counts” value is -0.282.

For FMCPICGAYFTQKGNLLRHIKL, the “log2 fold change of degron read counts” value turned out to be 0.986.

Turning to FGCNICGAPFTQKGNLLRHIKL, the “log2 fold change of degron read counts” value was 0.945.

On to FSCEQCGANFTQKGNLLRHIKL, for which the “log2 fold change of degron read counts” value was -1.54.

Turning to FYCNVCGALFTQKGNLLRHIKL, the “log2 fold change of degron read counts” value is 0.495.

Consider FGCEICGAAFTQKGNLLRHIKL, for which the “log2 fold change of degron read counts” value is -0.921.

Take FDCDVCGANFTQKGNLLRHIKL: the “log2 fold change of degron read counts” value was -1.44.

With FSCPVCGAIFTQKGNLLRHIKL, the “log2 fold change of degron read counts” value was determined as 0.463.

Consider FFCPICGRQFTQKGNLLRHIKL, for which the “log2 fold change of degron read counts” value was -1.15.

FECNQCGASFTQKGNLLRHIKL: the “log2 fold change of degron read counts” value is -1.59.

Consider FRCNQCGADFTQKGNLLRHIKL, for which the “log2 fold change of degron read counts” value was -1.3.

Regarding FCCPICGRWFTQKGNLLRHIKL, the “log2 fold change of degron read counts” value amounted to 1.33.

Take LKCPICGFACTQKGNLLRHIKL: the “log2 fold change of degron read counts” value was 0.575.

For the sequence FNCEVCGAMFTQKGNLLRHIKL, the “log2 fold change of degron read counts” value was -1.51.

Turning to FFCEQCGAKFTQKGNLLRHIKL, the “log2 fold change of degron read counts” value was -1.44.

For FHCEICGRHFTQKGNLLRHIKL, the “log2 fold change of degron read counts” value is -1.44.

As for LGCPICGFTCTQKGNLLRHIKL, the “log2 fold change of degron read counts” value came to 0.145.

With LCCEICGFPCTQKGNLLRHIKL, the “log2 fold change of degron read counts” value was 0.485.

Turning to LTCNQCGFTCTQKGNLLRHIKL, the “log2 fold change of degron read counts” value is -0.2.

On to FHCNQCGAVFTQKGNLLRHIKL, for which the “log2 fold change of degron read counts” value was 0.275.

As to FQCNQCGRRFTQKGNLLRHIKL, the “log2 fold change of degron read counts” value is -1.27.

Take FICPICGRDFTQKGNLLRHIKL: the “log2 fold change of degron read counts” value was determined as 0.00266.

On to FLCDQCGAIFTQKGNLLRHIKL, for which the “log2 fold change of degron read counts” value is -0.689.

Regarding FMCDVCGAFFTQKGNLLRHIKL, the “log2 fold change of degron read counts” value was -0.55.

For the sequence FYCNQCGATFTQKGNLLRHIKL, the “log2 fold change of degron read counts” value is -0.0919.

Turning to LNCNQCGFHCTQKGNLLRHIKL, the “log2 fold change of degron read counts” value worked out at 1.2.

FECDICGADFTQKGNLLRHIKL: the “log2 fold change of degron read counts” value is -1.91.

With FNCPICGASFTQKGNLLRHIKL, the “log2 fold change of degron read counts” value is -0.0763.

With FFCNQCGRHFTQKGNLLRHIKL, the “log2 fold change of degron read counts” value is 1.07.

For FMCPICGASFTQKGNLLRHIKL, the “log2 fold change of degron read counts” value was -0.69.

On to FLCEICGHYFTQKGNLLRHIKL, for which the “log2 fold change of degron read counts” value was -0.128.

As for FGCPICGHHFTQKGNLLRHIKL, the “log2 fold change of degron read counts” value was -0.09.

Take FVCPICGRIFTQKGNLLRHIKL: the “log2 fold change of degron read counts” value worked out at 0.164.
